# Results: PubChem BioAssay (NCATS)
# Values joined by “and” are separate entries in the source; they are usually repeats but may differ in a detail not shown here. Equal values may be shown once. Inconclusive results, whose numbers are uncertain, are shown with a selection of clear calls. For part of these data: A potency beside an inconclusive call is a rough fit, not a confirmed value. Active and inactive are the calls of the source. Calls come from the whole dose curve; as a rule, active = well fitted curve in the direction sought with a large enough effect; inconclusive = small, poorly fitted or top-dose-only effect, or another doubt; inactive = no such curve, though single readings can be large; an effect the other way counts as inactive or inconclusive.
# How the values were obtained:
# [1] = qHTS of pediatric cancer cell lines to identify multiple opportunities for drug repurposing: Primary screen for SJ-GBM2 cells (AID 1347091)
# Procedure, shortened: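 Viability measured as metabolically active cells via CellTiter-Glo luminescence following 48 hours of compound exposure, 11-point dilutions in confirmatory testing. 500-1,000 cells/well plated 5 hours before dosing; controls were DMSO and 2.3 µM bortezomib.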
# [2] = qHTS of pediatric cancer cell lines to identify multiple opportunities for drug repurposing: Primary screen for NB1643 cells (AID 1347099); note: nearly all actives have a fitted effect of over 50% in size
# Procedure, shortened: (§1)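 Readout: CellTiter-Glo luminescence, 48 h treatment. Controls DMSO (neutral) and bortezomib 2.3 µM final (positive). Potency and efficacy taken from primary-screen concentration-response curves.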
# [3] = qHTS of pediatric cancer cell lines to identify multiple opportunities for drug repurposing: Primary screen for BT-12 cells (AID 1347101); note: nearly all actives have a fitted effect of over 25% in size
# Procedure, shortened: (§2)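 Cells (500-1,000/well) rested 5 h, then received compounds for 48 h; metabolically active cells were measured by CellTiter-Glo luminescence. Final concentrations spanned up to 46 µM (MIPE, 11-point) or 0.59 nM-46 µM (NPC, 8-point) in primary screens, 11-point in follow-ups.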
# [4] = qHTS of pediatric cancer cell lines to identify multiple opportunities for drug repurposing: Primary screen for OHS-50 cells (AID 1347103); note: nearly all actives have a fitted effect of over 40% in size
# Procedure, shortened: as §2
# [5] = qHTS of pediatric cancer cell lines to identify multiple opportunities for drug repurposing: Primary screen for Rh30 cells (AID 1347107); note: nearly all actives have a fitted effect of over 75% in size
# Procedure, shortened: (§3)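 Viability after 48 h compound treatment at 37C, 500-1,000 cells/well, read as ATP luminescence with CellTiter-Glo. Primary screens used 11-point (MIPE, 0.78 nM-46 µM) or 8-point (NPC, 0.59 nM-46 µM) final concentrations; follow-up screens used 11-point dilutions.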
# [6] = qHTS of pediatric cancer cell lines to identify multiple opportunities for drug repurposing: Primary screen for A673 cells (AID 1347092); conditions: A673 Ewing sarcoma viability, CellTiter-Glo ATP luminescence, 48 h; activity change, negative = cytotoxic: at 46 µM (top of the series); note: nearly all actives have a fitted effect of over 45% in size
# Procedure, shortened: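 A673 cells (500-1,000 cells/well in growth media) were pre-incubated 5 h at 37 degrees C, then exposed to compounds for 48 h. Viability was read as CellTiter-Glo luminescence; concentration-response curves came directly from the primary screen.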
# [7] = qHTS of pediatric cancer cell lines to identify multiple opportunities for drug repurposing: Primary screen for SK-N-MC cells (AID 1347093); conditions: SK-N-MC viability, CellTiter-Glo luminescence, 48 h; activity change, negative = cytotoxic: at 46 µM (top of the series)
# Procedure, shortened: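 Metabolically active cells were quantified by ATP-dependent luminescence (CellTiter-Glo, 15 min at room temperature) following 48 h treatment. Cells had been plated at 500-1,000 per well and settled for 5 h beforehand.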
# [8] = qHTS of pediatric cancer cell lines to identify multiple opportunities for drug repurposing: Primary screen for BT-37 cells (AID 1347094)
# Procedure, shortened: as §1
# [9] = qHTS of pediatric cancer cell lines to identify multiple opportunities for drug repurposing: Primary screen for Saos-2 cells (AID 1347097); note: nearly all actives have a fitted effect of over 40% in size
# Procedure, shortened: as §1
# [10] = qHTS of pediatric cancer cell lines to identify multiple opportunities for drug repurposing: Primary screen for SK-N-SH cells (AID 1347098); note: nearly all actives have a fitted effect of over 65% in size
# Procedure, shortened: as §2
# [11] = qHTS of pediatric cancer cell lines to identify multiple opportunities for drug repurposing: Primary screen for RD cells (AID 1347104); note: nearly all actives have a fitted effect of over 55% in size
# Procedure, shortened: as §1
# [12] = qHTS of pediatric cancer cell lines to identify multiple opportunities for drug repurposing: Primary screen for Rh41 cells (AID 1347108); note: nearly all actives have a fitted effect of over 70% in size
# Procedure, shortened: as §1
# [13] = qHTS of pediatric cancer cell lines to identify multiple opportunities for drug repurposing: Primary screen for NB-EBc1 cells (AID 1347095)
# Procedure, shortened: as §1
# [14] = qHTS of pediatric cancer cell lines to identify multiple opportunities for drug repurposing: Primary screen for Rh18 cells (AID 1347102); note: nearly all actives have a fitted effect of over 65% in size
# Procedure, shortened: as §3
# [15] = qHTS of pediatric cancer cell lines to identify multiple opportunities for drug repurposing: Confirmatory screen for NB1643 cells (AID 1347109); conditions: NB1643 neuroblastoma cell viability; activity change, negative = cytotoxic: at 45.9 µM (top of the series); note: nearly all actives have a fitted effect of over 45% in size
# Procedure, shortened: as §3
# [16] = qHTS of pediatric cancer cell lines to identify multiple opportunities for drug repurposing: Primary screen for U-2 OS cells (AID 1347096); note: nearly all actives have a fitted effect of over 50% in size
# Procedure, shortened: as §3
# [17] = qHTS of pediatric cancer cell lines to identify multiple opportunities for drug repurposing: Primary screen for MG 63 (6-TG R) cells (AID 1347105); conditions: MG 63 (6-TG R) viability, CellTiter-Glo, 48 h; activity change, negative = cytotoxic: at 46 µM (top of the series); note: nearly all actives have a fitted effect of over 50% in size
# Procedure, shortened: as §1
# [18] = qHTS of pediatric cancer cell lines to identify multiple opportunities for drug repurposing: Primary screen for control Hh wild type fibroblast cells (AID 1347106); note: nearly all actives have a fitted effect of over 55% in size;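 for activity change, negative = cytotoxic: a drop in luminescence marks cytotoxicity and a rise apparent proliferation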
# Procedure, shortened: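 Cells (500-1,000/well) in growth media were settled 5 h at 37 degrees C, then given compounds for 48 h. Viability was read as CellTiter-Glo luminescence. Primary runs used MIPE at 11 points (0.78 nM-46 µM) and NPC at 8 points (0.59 nM-46 µM); follow-ups used 11 points.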
# [19] = qHTS of pediatric cancer cell lines to identify multiple opportunities for drug repurposing: Primary screen for LAN-5 cells (AID 1347100); conditions: LAN-5 neuroblastoma viability, CellTiter-Glo luminescence, 48 h; activity change, negative = cytotoxic: at 46 µM (top of the series)
# Procedure, shortened: as §3
# Potency is the fitted concentration of half-maximal effect; tags give direction and shape of the fitted curve.
compound,measurement,setting,value
O=C(c1ccc(F)cc1)C1CCN(CCn2c(=O)[nH]c3ccccc3c2=O)CC1,Potency,[1],"inconclusive: 18.8 µM [cytotoxic, partial curve]"
same,Potency,[2],inactive
same,Potency,[3],"inconclusive: 38.9 µM [cytotoxic, partial curve, poor fit]"
same,Potency,[4],"inconclusive: 43700 nM [cytotoxic, partial curve, poor fit]"
same,Potency,[5],inactive
NC(=O)C1CCCc2c1[nH]c1ccc(Cl)cc21 (stereo not drawn),Potency,[6],active: 23.5 µM
same,Potency,[7],active: 26.4 µM
same,Potency,[8],inactive
same,Potency,[9],"inconclusive: 6.62 µM [cytotoxic, partial curve]"
same,Potency,[10],"inconclusive: 9.61 µM [cytotoxic, partial curve]"
same,Potency,[2],"inconclusive: 18.7 µM [cytotoxic, single point]"
same,Potency,[4],"inconclusive: 485 nM [cytotoxic, full curve]"
same,Potency,[11],"inconclusive: 33.2 µM [cytotoxic, single point]"
same,Potency,[5],"inconclusive: 14.8 µM [cytotoxic, partial curve]"
same,Potency,[12],"inconclusive: 13.2 µM [cytotoxic, partial curve]"
CCN(CCO)CCCOc1ccc2c(Nc3cc(CC(=O)Nc4cccc(F)c4)[nH]n3)ncnc2c1,Potency,[6],"inconclusive: 11.8 µM [cytotoxic, partial curve]"
same,Potency,[8],"inconclusive: 24.3 µM [cytotoxic, single point]"
same,Potency,[13],"inconclusive: 1.18 µM [cytotoxic, full curve]"
same,Potency,[10],"inconclusive: 4.82 µM [cytotoxic, partial curve]"
same,Potency,[2],"inconclusive: 0.0935 µM [cytotoxic, full curve]"
same,Potency,[3],inactive
same,Potency,[14],inactive
same,Potency,[4],"inconclusive: 172 nM [cytotoxic, full curve]"
same,Potency,[12],"inconclusive: 37.2 µM [cytotoxic, partial curve, poor fit]"
same,Potency,[15],"inconclusive: 0.0414 µM [cytotoxic, full curve]"
O=C1CSC(=O)N1C(CCc1ccncc1)COc1ccc(-c2cccc([N+](=O)[O-])c2)cc1 (stereo not drawn),Potency,[1],"inconclusive: 14.8 µM [cytotoxic, partial curve]"
same,Potency,[16],inactive
same,Potency,[2],"inconclusive: 5.26 µM [cytotoxic, full curve]"
same,Potency,[3],active: 6.85 µM
same,Potency,[14],inactive
same,Potency,[11],"inconclusive: 9.35 µM [cytotoxic, partial curve]"
same,Potency,[17],"inconclusive: 29.6 µM [cytotoxic, single point]"
same,Potency,[18],inactive
same,Potency,[5],"inconclusive: 5.9 µM [cytotoxic, partial curve]"
same,Potency,[12],"inconclusive: 10.5 µM [cytotoxic, partial curve]"
CC1(C)OC2CC3C4CC(F)C5=CC(=O)C=CC5(C)C4C(O)CC3(C)[C@]2(C(=O)CO)O1 (stereo partly drawn),Potency,[1],inactive
same,Potency,[9],inactive
same,Potency,[4],inactive
same,Potency,[15],inactive
COc1cc2c(N3CCN(C(=O)Nc4ccc(OC(C)C)cc4)CC3)ncnc2cc1OCCCN1CCCCC1,Potency,[6],"inconclusive: 26.6 µM [cytotoxic, single point]"
same,Potency,[7],"inconclusive: 33.5 µM [cytotoxic, single point]"
same,Potency,[9],"inconclusive: 6.62 µM [cytotoxic, partial curve, poor fit] and inconclusive: 26.6 µM [cytotoxic, single point]"
same,Potency,[10],active: 27.1 µM and active: 17.2 µM
same,Potency,[19],"active: 18.7 µM and inconclusive: 29.9 µM [cytotoxic, single point]"
same,Potency,[3],"active: 24.3 µM and inconclusive: 38.9 µM [cytotoxic, single point]"
same,Potency,[14],"inconclusive: 26.4 µM [cytotoxic, single point] and inconclusive: 29.9 µM [cytotoxic, single point]"
same,Potency,[4],active: 27.3 µM and active: 19.5 µM
same,Potency,[11],active: 26.4 µM and active: 26.6 µM
same,Potency,[18],"inconclusive: 33.2 µM [cytotoxic, single point] and inconclusive: 26.6 µM [cytotoxic, single point]"
same,Potency,[12],"inconclusive: 833 nM [cytotoxic, partial curve] and inconclusive: 2.66 µM [cytotoxic, partial curve, poor fit]"
COc1cc2c(cc1-c1c(C)noc1C)ncc1[nH]c(=O)n([C@H](C)c3ccccn3)c12,Potency,[6],active: 4.69 µM
same,Potency,[8],active: 17.2 µM
same,Potency,[13],active: 16.6 µM
same,Potency,[16],active: 18.7 µM
same,Potency,[9],"inconclusive: 3.32 µM [cytotoxic, full curve]"
same,Potency,[10],active: 21.5 µM
same,Potency,[3],active: 19.3 µM
same,Potency,[18],active: 16.6 µM
same,Potency,[5],active: 23.5 µM
same,Potency,[12],active: 9.35 µM
COc1c2occc2cc2ccc(=O)oc12,Potency,[1],inactive
same,Potency,[9],"inconclusive: 14.8 µM [cytotoxic, partial curve]"
same,Potency,[2],inactive
